# Source: PMC4336329 (PLoS ONE, 2015)
# Hit rate of the full screen: of about 310,000 compounds, about 2,200 (0.71%) showed an effect of 50% or more. Effects have a minus sign here. The list shows a part of the results.
# Target: human ether-à-go-go-related gene (hERG) potassium channel (human, UniProt Q12809)
# Experiment: primary screen, population patch clamp on CHO cells stably expressing hERG
# Sequence of human ether-à-go-go-related gene (hERG) potassium channel (Q12809 whole entry, looked up): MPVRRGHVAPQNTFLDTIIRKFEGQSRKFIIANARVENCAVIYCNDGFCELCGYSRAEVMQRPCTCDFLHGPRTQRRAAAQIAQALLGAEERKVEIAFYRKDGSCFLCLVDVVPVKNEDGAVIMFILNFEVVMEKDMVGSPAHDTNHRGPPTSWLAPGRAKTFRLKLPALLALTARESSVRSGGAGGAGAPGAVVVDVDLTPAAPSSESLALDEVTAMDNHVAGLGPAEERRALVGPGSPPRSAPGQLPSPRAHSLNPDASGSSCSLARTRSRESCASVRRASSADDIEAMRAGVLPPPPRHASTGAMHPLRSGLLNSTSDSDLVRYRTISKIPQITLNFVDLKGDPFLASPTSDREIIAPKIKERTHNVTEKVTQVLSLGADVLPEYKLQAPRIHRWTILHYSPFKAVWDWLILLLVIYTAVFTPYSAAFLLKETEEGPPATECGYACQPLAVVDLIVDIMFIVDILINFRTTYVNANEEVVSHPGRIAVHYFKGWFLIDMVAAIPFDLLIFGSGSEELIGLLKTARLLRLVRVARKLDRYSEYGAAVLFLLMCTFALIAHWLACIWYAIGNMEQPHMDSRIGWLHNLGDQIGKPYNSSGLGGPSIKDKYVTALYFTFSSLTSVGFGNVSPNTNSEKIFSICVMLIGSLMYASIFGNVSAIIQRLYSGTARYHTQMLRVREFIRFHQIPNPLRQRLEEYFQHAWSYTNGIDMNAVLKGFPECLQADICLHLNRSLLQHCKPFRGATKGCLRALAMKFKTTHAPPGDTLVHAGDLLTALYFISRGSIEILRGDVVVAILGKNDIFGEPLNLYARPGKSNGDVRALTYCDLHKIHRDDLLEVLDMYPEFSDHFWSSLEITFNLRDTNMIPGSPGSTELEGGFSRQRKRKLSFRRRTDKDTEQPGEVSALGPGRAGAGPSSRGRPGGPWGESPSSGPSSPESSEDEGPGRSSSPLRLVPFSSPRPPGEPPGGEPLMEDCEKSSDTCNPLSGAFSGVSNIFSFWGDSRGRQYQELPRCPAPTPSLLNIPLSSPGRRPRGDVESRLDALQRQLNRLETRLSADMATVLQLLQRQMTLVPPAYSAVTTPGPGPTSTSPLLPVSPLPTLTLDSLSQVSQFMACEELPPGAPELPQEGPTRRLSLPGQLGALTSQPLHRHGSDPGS
row,Compound,"hERG current change (%, negative = inhibition) at 1uM [%]"
1,C#CC(C)(CC)NC(=O)Cn1nnc(-c2ccc(S(C)(=O)=O)cc2)n1 (centres unmarked),4.43
2,CSc1ccccc1NC(=O)COc1ccc(Cl)cc1C,5.08
3,CCCCc1nc(SCC(=O)Nc2nnc(C(C)C)s2)n[nH]1,14.1
4,O=C(NNC(=S)NC(=O)c1ccc(Br)cc1)c1cccc([N+](=O)[O-])c1,7.73
5,Cc1c(Cl)cnc(NC(=O)COC(=O)[C@H](C)NC(=O)c2ccccc2)c1Cl,12.3
6,C=CCNC(=S)NNC(=O)C(CCCC)CC(C)(C)O (centres unmarked),0.767
7,O=C(CSc1n[nH]c(-c2ccccn2)n1)Nc1ccc(Cl)cc1,10
8,COCCCNC(=S)Nc1cc2oc3ccccc3c2cc1OC,-0.116
9,Cc1nn(CC(O)Cn2c3c(c4ccccc42)CCN(C)C3=O)c(C)c1Br (centres unmarked),1.36
10,C(=C\c1ccccn1)/c1ccncc1,9.6
11,COC(=O)CSc1cc(C(F)(F)F)nc(-c2ccccn2)n1,17.4
12,CCOC(=O)C1=C(C)NC(C)=C(C(=O)OCC)C1C(=O)OCC(=O)N1CCCCC1CC (centres unmarked),10.6
13,CCOC(=O)c1cc(/C(C)=N/OC(=O)c2ccc(C(C)(C)C)cc2)on1,9.61
14,COc1ccc(Nc2cc(Cl)nc(N)n2)cc1,17
15,Cc1ccc(NC(=O)COC(=O)CCc2ccccc2)c(Cl)c1,21.2
16,O=C(NC12CC3CC(CC(C3)C1)C2)N1CC2Cc3cccc(=O)n3C(C2)C1 (centres unmarked),14.3
17,CC(C)(C)c1ccc(/C=C(\C#N)C(=O)NCCN2CCOCC2)cc1,2.39
18,Cn1c(=O)cc(OCC(=O)NCCC2=CCCCC2)c2ccccc21,6.25
19,C/C(=N\NC(=O)c1nnn(-c2nonc2N)c1-c1ccc2c(c1)OCO2)c1cccs1,6.13
20,CCCCNC(=O)CN1C(=O)NC2(CCCc3ccccc32)C1=O (centres unmarked),5.45
21,CCOC(=O)c1cc([N+](=O)[O-])sc1NC(=O)CC,-2.81
22,CCOC(=O)Cn1c(=O)oc2cc(S(=O)(=O)N3CCCC(C(=O)OCC)C3)ccc21 (centres unmarked),8.15
23,CC(NS(=O)(=O)c1ccc(F)cc1)C(c1cccs1)N1CCOCC1 (centres unmarked),11

row,Compound,"hERG current change (%, negative = inhibition) at 1uM [%]"
1,CCc1cc(C(=O)O)c(NC(=O)/C=C/c2ccc(OC)cc2)s1,19
2,O=Cc1ccc(N2CCCCCC2)cc1,8.69
3,O=[N+]([O-])c1cccc(Nc2c3ccccc3nc3ccccc23)c1,11.4
4,CCOc1cc(C2C(C(C)=O)=C(O)C(=O)N2CCc2c[nH]c3ccccc23)ccc1O (centres unmarked),14.7
5,O=C1Nc2ccc(S(=O)(=O)N3CCCC3)c3ccc(S(=O)(=O)N4CCCC4)c1c23,-1.32
6,Cc1ccccc1NC(=O)CSc1nnc(CNC(=O)c2ccco2)n1C,-0.407
7,COCC1CCCCN1C(=O)c1ccc(OC2CCN(CCc3ccccc3)CC2)cc1 (centres unmarked),-13.2
8,Cl.O=C(Nc1cc(F)cc(F)c1)c1ccc(NCCCN2CCCCCC2)c([N+](=O)[O-])c1,-7.14
9,COC(=O)c1ccc(Nc2nc(-c3ccncc3)nc3ccccc23)cc1,17.6
10,CCN(CC(=O)Nc1ccccc1C(F)(F)F)C(=O)C1=COCCO1,15.6
11,O=C(Cn1cnc2ccccc21)OCC(=O)N1CCCc2ccccc21,14.9
12,CCCCNC(=O)c1cn(CC)c2ccc(S(=O)(=O)N3CCCC3)cc2c1=O,6.36
13,Cc1ccc(C(OCC(O)CNC(C)c2ccccc2)c2ccccc2)cc1 (centres unmarked),-2.79
14,CCN1CCN(S(=O)(=O)c2ccc(Cl)c(C(=O)N(CC)CC(=O)Nc3ccc(OC)cc3)c2)CC1,15.3
15,COc1cc(CCC(=O)OCn2nnc3ccccc3c2=O)cc(OC)c1OC,13.7
16,Cc1cc(NC(=O)CCC(=O)N(CC(=O)NC2CCCC2)Cc2ccccc2Cl)no1,12.6
17,c1ccc(Nc2c(-c3ccco3)nc3ccccn23)cc1,9.85
18,C#Cc1ccc([C@@H]2C=C(C(=O)NC3CC3)O[C@H](OCCCCO)C2)cc1,12.2
19,Cc1ccc(S(=O)(=O)n2cnc3ccccc32)c(C)c1,2.96
20,CC(=O)c1c(C)[nH]c(C(=O)Nc2nccs2)c1C,3.07
21,CC(C)CN(C(=O)COC(=O)COc1ccc2c(c1)CCC2)c1c(N)n(Cc2ccccc2)c(=O)[nH]c1=O,14.8
22,O=C1c2cccc3cccc(c23)C(=O)N1c1ccc(O)cc1,10.1
23,Cc1c(C#N)c(SCC(N)=O)nc2c1CCCC2,2.32

row,Compound,"hERG current change (%, negative = inhibition) at 1uM [%]"
1,CCS(=O)(=O)N1CCN(CC2CC3C=CC2C3)CC1 (centres unmarked),14.9
2,Cc1nn(-c2ccccc2)c2c1CC1(C(=O)N(C)C(=O)N(C)C1=O)C1CCCCN21 (centres unmarked),16.5
3,Cc1cccc(NC(=O)CCCc2ccccc2)c1C,8.97
4,O=c1[nH]c(Cc2ccccn2)nc2scc(-c3ccc(Cl)cc3)c12,12.3
5,O=C(CSc1nnc(NC(=O)C2CC(=O)N(c3ccccc3)C2)s1)NC1CCCC1 (centres unmarked),5.63
6,Cn1c(SCC(=O)NCc2ccccc2)nc2c([nH]c3ccccc32)c1=O,8.98
7,O=C(O)C1CCN(Cc2cnn(-c3ccccc3)c2-n2cccc2)CC1,5.96
8,COc1ccc(CCNC(=O)C2CC(c3ccccc3[N+](=O)[O-])=NO2)cc1 (centres unmarked),2.1
9,CCc1cccc2sc(N3CCN(C(=O)c4ccc([N+](=O)[O-])o4)CC3)nc12,-8.03
10,CCCCn1c(-c2csc(CC)c2)n[nH]c1=S,16.8
11,NS(=O)(=O)c1ccc(CCNC(=O)CNC(=O)C2CCCCC2)cc1,14.4
12,C=C(C)C(=O)Nc1cccc(C2=NOC3(C2)C[C@H](C(N)=O)N(C(=O)/C=C/C)C3)c1 (some centres unmarked),8.88
13,COc1ccc(C(=O)N2CCN(C(=O)c3ccc(-c4ccccc4)cc3)CC2)cc1OC,4.46
14,O=C(O)c1ccccc1SC1CC(=O)N(C2CCCCC2)C1=O (centres unmarked),7.63
15,Cc1ccccc1-n1c(SCc2c(C)noc2C)nnc1-c1ccncc1,10.2
16,CCOC(=O)CSc1ccc(C(=O)Nc2ccc(Cl)cc2)cn1,11.6
17,COc1ccc2cc3c(N)nn(C(=O)c4ccc(Cl)c([N+](=O)[O-])c4)c3nc2c1,6.35
18,CCC(Oc1ccccc1OC)C(=O)N1CC(=O)Nc2ccccc21 (centres unmarked),2.9
19,O=C(CSc1nnc(CNC(=O)c2cccs2)o1)Nc1ccc(Cl)cc1,9.65
20,CCOCC(=O)Nc1ccccc1C(=O)O,15.2
21,Cc1ccc(C2CC(=O)NC(SCc3ccccc3)=C2C#N)cc1 (centres unmarked),14.6
22,O=C(Nc1cccc(Cl)c1N1CCCCC1)c1ccc2c(c1)OCCO2,11.8
23,COc1cc(/C=N/n2nnnc2N)ccc1OCC#N,17.1

row,Compound,"hERG current change (%, negative = inhibition) at 1uM [%]"
1,COc1ccc(C(C)C)cc1S(=O)(=O)N1CCC(C(=O)NCC2CCCO2)CC1 (centres unmarked),8.66
2,CC(=O)c1cnc2nc(C(F)(F)F)nn2c1C,6.36
3,CC(=O)C(Sc1nn(C)c(=S)s1)C(=O)Nc1ccccc1 (centres unmarked),2.83
4,COc1ccc(-c2onc3ccc(C(C)=O)cc23)cc1,4.32
5,O=C(COc1ccc2c(-c3ccccc3)cc(=O)oc2c1)Nc1ccc(CCO)cc1,7.49
6,O=c1c2ccc([N+](=O)[O-])cc2ncn1CCOc1cccc(Br)c1,8.55
7,Cc1ccccc1-n1c(SCC(=O)c2c(N)n(C)c(=O)n(C)c2=O)nnc1-c1cccnc1,8.77
8,CCC(C)C(NC(=O)/C(=C\c1ccccc1)NC(=O)c1ccc(OC)cc1)C(=O)O (centres unmarked),20
9,CC(=O)Nc1cccc(CCc2nc3ccccc3[nH]2)c1,6.69
10,COCC(=O)Nc1ccc2c(c1)OCC(=O)N2Cc1ccc(C)cc1,1.26
11,Cc1nnc(SCCC(=O)Nc2ccccc2Cl)o1,7.85
12,Cc1ccc(-c2nn3c(C)nnc3s2)cc1NC(=O)COc1ccc(Cl)cc1,-74.3
13,O=C(CCS(=O)(=O)c1ccc(Br)cc1)NC1CCCC1,12.7
14,Cc1cc(N2CC(=O)N(CCc3ccccc3)C(=O)C2)n2ncnc2n1,-0.495
15,O=C(Nc1ccon1)c1cccc(S(=O)(=O)N2CCCC2)c1,8.64
16,CN(Cc1cnn(C)c1)Cc1nc(C(c2ccccc2)c2ccccc2)no1,-0.349
17,O=C(NCCC(=O)N1CCN(c2ccccc2F)CC1)c1ccco1,10.2
18,COCCNC(=O)[C@@H]1CCCN1S(=O)(=O)c1cccc2cccnc12,6.09
19,CC(C)(C)Nc1c(-c2ccc(O)cc2)nc2ccc(Cl)cn12,13.6
20,COc1ccc(N(C(=O)c2ccco2)C(C(=O)NC2CCCC2)c2ccc(OC)c(OC)c2)cc1 (centres unmarked),7.23
